Data: publication PMC4336329 (PLoS ONE, 2015)
Hit rate of the full screen: of about 310,000 compounds, about 2,200 (0.71%) showed an effect of 50% or more. The effect is printed as a negative number. The list shows a part of the results.

What follows are compounds tested against human ether-à-go-go-related gene (hERG) potassium channel (human, UniProt Q12809) (assay: primary screen, population patch clamp on CHO cells stably expressing hERG).
Sequence of human ether-à-go-go-related gene (hERG) potassium channel (Q12809 whole entry, looked up): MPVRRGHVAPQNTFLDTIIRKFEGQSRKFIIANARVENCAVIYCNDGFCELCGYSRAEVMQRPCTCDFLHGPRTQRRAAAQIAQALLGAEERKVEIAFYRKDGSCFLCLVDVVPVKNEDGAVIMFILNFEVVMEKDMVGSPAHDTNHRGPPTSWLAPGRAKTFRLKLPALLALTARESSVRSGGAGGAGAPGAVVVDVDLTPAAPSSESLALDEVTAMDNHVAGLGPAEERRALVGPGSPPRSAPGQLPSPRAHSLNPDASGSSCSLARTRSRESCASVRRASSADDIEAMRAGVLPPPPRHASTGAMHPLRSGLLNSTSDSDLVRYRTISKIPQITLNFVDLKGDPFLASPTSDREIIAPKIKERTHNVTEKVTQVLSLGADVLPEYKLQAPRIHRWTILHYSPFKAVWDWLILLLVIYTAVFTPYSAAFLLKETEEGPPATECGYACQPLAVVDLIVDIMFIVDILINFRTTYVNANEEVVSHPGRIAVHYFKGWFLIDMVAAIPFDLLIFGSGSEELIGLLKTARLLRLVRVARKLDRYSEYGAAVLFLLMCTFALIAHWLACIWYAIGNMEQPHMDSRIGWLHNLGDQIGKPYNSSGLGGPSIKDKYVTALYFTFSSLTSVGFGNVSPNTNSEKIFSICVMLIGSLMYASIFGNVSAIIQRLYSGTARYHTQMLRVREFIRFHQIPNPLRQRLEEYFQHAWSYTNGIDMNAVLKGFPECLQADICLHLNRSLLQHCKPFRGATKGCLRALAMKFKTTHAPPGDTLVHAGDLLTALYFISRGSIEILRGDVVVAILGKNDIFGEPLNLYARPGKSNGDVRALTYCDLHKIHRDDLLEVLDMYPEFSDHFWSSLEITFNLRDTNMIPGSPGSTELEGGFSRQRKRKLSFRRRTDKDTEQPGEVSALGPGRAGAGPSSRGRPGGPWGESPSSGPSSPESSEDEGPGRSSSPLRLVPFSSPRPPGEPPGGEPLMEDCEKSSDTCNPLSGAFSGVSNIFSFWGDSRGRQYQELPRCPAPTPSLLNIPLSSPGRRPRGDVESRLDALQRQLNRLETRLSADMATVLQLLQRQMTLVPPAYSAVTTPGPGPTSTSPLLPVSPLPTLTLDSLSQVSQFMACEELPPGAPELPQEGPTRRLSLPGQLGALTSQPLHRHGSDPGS

Row | SMILES | hERG current change (%, negative = inhibition) at 1uM [%]
1 | Oc1ccc(Nc2nc(Cl)nc(NCc3ccco3)n2)cc1 | 1.55
2 | COc1ccc(-c2cn3cccnc3n2)cc1NC(=O)c1cccs1 | 4.09
3 | O=C(CCC(=O)c1ccc(F)cc1)OCc1nnc(-c2ccc([N+](=O)[O-])cc2)o1 | 1.72
4 | CCC(Oc1ccc(Br)cc1Cl)C(=O)Nc1nnc(C2CC2)s1 (centres unmarked) | 10.3
5 | CCn1c(SCC(=O)Nc2nc3ccc(C)cc3s2)nc2c(c1=O)SC(C)C2 (centres unmarked) | 3.68
6 | COc1cccc(N2CCN(CC(=O)NC(C)c3ccccc3)CC2)c1 (centres unmarked) | 10
7 | O=C(O)c1nc(N2CCOCC2)nc(N2CCOCC2)n1 | 2.06
8 | Cn1ncc(C#N)c1NC(=O)C1CC(c2ccc(Cl)cc2)=NO1 (centres unmarked) | 6.73
9 | CCOC(=O)C1CCN(CC(O)COc2ccc(C(=O)CC)cc2)CC1.Cl (centres unmarked) | -49.5
10 | O=c1[nH]c(=S)n(C2CC2)c(O)c1C=NCc1cccnc1 | 10.7
11 | CC(=O)c1cccc(NC(=O)COC(=O)c2ccccc2C)c1 | 6.82
12 | O=S(=O)(Nc1nc2ccccc2s1)c1ccc(Cl)nc1 | -1.94
13 | COCCNC(=S)N/N=C/c1c2ccccc2cc2ccccc12 | 16.1
14 | O=C(CCc1nc2sc3c(c2c(=O)[nH]1)CCCC3)Nc1ccccc1Cl | 5.44
15 | Cn1c(N)c(C(=O)COC(=O)c2cc(-c3ccco3)nc3ccccc23)c(=O)n(Cc2ccccc2)c1=O | 5.9
16 | CSc1nc(N(C)C)nc(N(C#N)CCOC(C)=O)n1 | 5.11
17 | Cn1c(=O)n(C)c2cc(C(=O)c3ccccc3)ccc21 | 3.35
18 | COc1ccc(N2CC(NC(=O)NC(C)(C)C)CC2=O)cc1 (centres unmarked) | 10.1
19 | O=C(CSc1nc2ccccc2s1)N/N=C/c1ccco1 | 13.9
20 | COc1ccc(-c2csc(NC(=O)CN3C(=O)CCC3=O)n2)c(OC)c1 | 10.6
21 | CCS(=O)(=O)N1CCC(C(=O)NCCCN2CCC(Cc3ccccc3)CC2)CC1 | -43.2
22 | Cn1cccc1-c1cc(C(=O)N/N=C/c2cc(Br)ccc2O)[nH]n1 | 22.7
23 | Brc1ccc(-c2cnc(-c3cccs3)o2)cc1 | 2.8

Row | SMILES | hERG current change (%, negative = inhibition) at 1uM [%]
24 | O=C(COc1ccc2c(c1)CCC2)N1CCN(c2ccc(F)cc2)CC1 | 4.48
25 | COC(=O)c1ccc2c(=O)[nH]c(CCl)nc2c1 | 11.4
26 | COc1cc(OC)c(CN2CCCCCCC2)cc1Br | 0.256
27 | COC(=O)C(NC(=O)CNS(=O)(=O)c1ccc(Br)cc1)c1ccccc1 (centres unmarked) | 10.3
28 | CCc1cc2c(=O)[nH]c(CC(N)=O)nc2s1 | 17.4
29 | Cc1ccc(C(=O)OCC(=O)Nc2ncc(Cl)cc2Cl)cc1NC(=O)c1ccco1 | -13.9
30 | COc1ccc2c(c1)c(N=O)c(O)n2C | 15
31 | Fc1ccc(-n2nnc(-c3ccccc3)n2)cc1 | 15.7
32 | O=C(/C=C/c1ccccc1Cl)NC(=S)Nc1ccccc1C(=O)NC1CCCCC1 | 13.9
33 | CC(=O)NC(c1cccs1)c1cc([N+](=O)[O-])c2cccnc2c1O (centres unmarked) | 11.7
34 | COc1ccc(Cc2nc3ccccc3c(=O)n2N)cc1OC | 16.5
35 | CCCC(=O)Nc1nnc(-c2ccc3c(c2)OCO3)s1 | 10.2
36 | Cc1cccc(-c2noc(-c3ccc(Cl)cc3[N+](=O)[O-])n2)c1 | 15.5
37 | CC(C)c1ccc(NC(=S)NNC(=O)C2CC2)cc1 | 16.3
38 | CC(Nc1c[nH]c(=O)[nH]c1=O)c1ccccc1 (centres unmarked) | 14.1
39 | Cc1cccc(NCC(=O)N/N=C/c2ccc(Br)cc2)c1 | 10.5
40 | O=C(C(=O)N1CCN(c2ccc([N+](=O)[O-])cc2)CC1)c1cn(CC(=O)N2CCOCC2)c2ccccc12 | -1.14
41 | NC(=O)CN(c1ccccc1)C1SC(=O)N(Cc2ccccc2)C1=O (centres unmarked) | 5.06
42 | S=C(Nc1ccc(Cl)cc1)c1sc(N2CCCCC2)nc1N1CCOCC1 | 4.37
43 | O=C(O)CC1NC(=O)N(C2CCCCC2)C1=O (centres unmarked) | 7.4
44 | COc1ccc(/C=C(/NC(=O)c2ccccc2)C(=O)N2CCCCC2)cc1OC | 10.9
45 | CC(C)(C)C(=O)Nc1ccc(S(=O)(=O)N2CC3CC(C2)c2cccc(=O)n2C3)cc1 (centres unmarked) | 6.28
46 | CC1CCC(C(C)C)C(OP(=O)(c2ccccc2)C(O)c2ccncc2)C1 (centres unmarked) | 7.2

Row | SMILES | hERG current change (%, negative = inhibition) at 1uM [%]
47 | CC(=O)N1CCN(Cc2cc(=O)n3cc(Cl)c(C)c(Cl)c3n2)CC1 | -10.7
48 | Cc1ccccc1NC(=O)Cc1nc(COC(=O)CSc2ccccc2)cs1 | 6.65
49 | O=C(Nc1ccc(Br)cn1)C1CCN(S(=O)(=O)c2cccs2)CC1 | -2.33
50 | C=C(C)Cn1c(N(CCO)Cc2ccccc2)nc2c1c(=O)[nH]c(=O)n2C | 7.92
51 | O=C(N/N=C\c1ccc(CNS(=O)(=O)c2ccc(Cl)cc2)o1)C(=O)Nc1ccc(Oc2ccccc2)cc1 | 14.5
52 | CCOC(=O)c1cccc(NC2c3ccccc3C(=O)N2Cc2ccco2)c1 (centres unmarked) | 17.9
53 | COc1ccc(-c2cc(C(F)(F)F)n3ncc(C(=O)NCc4ccco4)c3n2)cc1 | 7.09
54 | Nc1ccc(S(=O)(=O)c2ccc(N)c(N)c2)cc1 | 15.8
55 | Cc1nn(C)cc1C(C(=O)NC1CCCCC1)N(C(=O)Cn1nnc2ccccc21)c1ccc(F)cc1 (centres unmarked) | -2.79
56 | CC(C)c1cccc(C(C)C)c1NC(=O)CN(C)C1CCS(=O)(=O)C1 (centres unmarked) | -6.21
57 | Nc1ccc(-c2ccc(N)cc2C(F)(F)F)c(C(F)(F)F)c1 | -1.33
58 | CC/C(=N\NC(=O)COc1ccc(Br)cc1)c1ccc(OC)c(OC)c1 | 13.5
59 | O=c1c2ccccc2n(Cc2cccc(F)c2)c(=O)n1C1CCCC1 | 5.44
60 | Cc1cccc(N(CC(=O)NC2CCCC2)C(=O)CS(=O)CC(=O)Nc2ccc3c(c2)OCO3)c1C (centres unmarked) | 14.8
61 | CCC(NC(=O)CN1CCN(C(=O)c2cccs2)CC1)c1ccc(C)cc1 (centres unmarked) | -3.24
62 | COc1cc(C(=O)NC(=S)N2C[C@H]3C[C@H](C2)c2cccc(=O)n2C3)cc(OC)c1OC | 3.29
63 | CCCN1C2CCCC1CC(NC(=O)c1ccc(F)cc1)C2 (centres unmarked) | -29.7
64 | COc1ccc2nc(C)cc(N/N=C/c3ccc(F)cc3)c2c1 | 6.3
65 | Cc1cc(NCc2ccccn2)n2ncc(-c3ccc(Cl)cc3)c2n1 | 12.2
66 | CCOc1ccc(C(=O)N[C@H](C(=O)Nc2cccc(S(=O)(=O)N3CCCCC3)c2)C(C)C)cc1 | 7.45
67 | O=C(O)CN1CCN(CC(=O)O)CCN(CC(=O)O)CCN(CC(=O)O)CC1 | 9.32
68 | Cl.c1ccc(C(OCCN2CCNCC2)c2ccccc2)cc1 | 4.05
69 | OC(COCC1CC=CCC1)Cn1cnc2ccccc21 (centres unmarked) | 3.82

Row | SMILES | hERG current change (%, negative = inhibition) at 1uM [%]
70 | Cc1cc(OCCCCOc2ccc(S(N)(=O)=O)c(C)c2)ccc1S(N)(=O)=O | 12.7
71 | CN(C)CCCN(C(=O)COc1ccc(Cl)cc1)c1nc2c(F)cccc2s1.Cl | -16.9
72 | Cc1cc(Br)ccc1SCC(=O)OCC(=O)NC1CC1 | 14
73 | O=c1cc(-c2ccccc2)n(S(=O)(=O)c2ccccc2)o1 | 11.1
74 | COC(=O)CCCC(=O)N1CCC(CO)(CCc2ccccc2)CC1 | -0.837
75 | O=C(Nc1c2c(nn1-c1ccc(F)cc1)CS(=O)C2)c1ccc(S(=O)(=O)N2CCOCC2)cc1 (centres unmarked) | 11.7
76 | CC(=O)Nc1ccc(/C=N/NS(=O)(=O)c2cc(C)ccc2C)cc1 | -16.3
77 | Cc1noc(C)c1S(=O)(=O)NCC(=O)O | 14.3
78 | COc1cc(C(=O)Nc2cnc(NC(=O)C(C)C)cc2C)cc(OC)c1OC | 17.7
79 | Cc1cc(NC(=O)COC(=O)[C@@H](NS(=O)(=O)c2ccccc2)C(C)C)no1 | 8.91
80 | Cc1cscc1NC(=O)/C=C/C(=O)O | 5.26
81 | O=C(N/N=C/c1ccco1)C1CC1(c1ccccc1)c1ccccc1 (centres unmarked) | 2.04
82 | CCCCCOc1ccc(C(=O)NC(CCC)C(=O)O)cc1 (centres unmarked) | -0.623
83 | CNC(=O)c1ccccc1NC(=O)C1CC(=O)N(C(C)C)C1 (centres unmarked) | 10.8
84 | COc1ccc(C(=O)Nc2nc(C)cc(C)n2)cc1[N+](=O)[O-] | 8.54
85 | COc1cc(NC(=O)CN(C)Cc2ccc(OC(F)F)cc2)c(C)cc1[N+](=O)[O-] | 0.819
86 | Cc1cc(NC(=O)COc2coc(CN3CCN(c4ccc(F)cc4)CC3)cc2=O)no1 | -7.93
87 | CC1(C)CCC(=O)N2CC[C@H]3C[C@H](OC(=O)Nc4ccc5c(c4)OCO5)C[C@@H]1[C@H]32 | 11.1
88 | COCCn1c(NCc2ccc(C)cc2)nc2c1c(=O)[nH]c(=O)n2C | 6.56
89 | c1ccc(C(c2ccccn2)c2ccccn2)cc1 | 5.64
